# From PMC12820563, “FoxP3 forms a head-to-head dimer in vivo and stabilizes its multimerization on adjacent microsatellites”
# The list shows a part of the results.
# Target: T1, MBP-FoxP1dN (Mus musculus, UniProt P58462 326-579)
# T1 sequence: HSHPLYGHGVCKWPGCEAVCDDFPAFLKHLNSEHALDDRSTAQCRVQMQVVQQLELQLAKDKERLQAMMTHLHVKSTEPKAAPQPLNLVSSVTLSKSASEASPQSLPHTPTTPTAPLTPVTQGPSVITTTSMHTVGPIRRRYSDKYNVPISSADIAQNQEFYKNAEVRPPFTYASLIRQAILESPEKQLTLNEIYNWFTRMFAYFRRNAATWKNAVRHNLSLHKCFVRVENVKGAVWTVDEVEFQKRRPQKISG
# Test: PD-seq (MBP pull-down with sequencing); 20 mM Tris-HCl pH 7.5, 100 mM NaCl, 1.5 mM MgCl2, 0.4 uM protein, 0.1 uM dsDNA library, 30 min, room temperature, amylose pull-down; high values mean tight binding
# Details: protein: recombinant; tags: His6-MBP; chain copies: 2; dsDNA, one strand shown
# Summary of the method: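 E. coli-expressed mouse FoxP3 or FoxP1 fragment, N-terminus removed and tagged with His6-MBP, was used at 0.4 µM against 0.1 µM of a Klenow-filled degenerate double-stranded DNA library. After 30 min at room temperature in Tris pH 7.5 buffer with NaCl and MgCl2, complexes were pulled down on amylose resin and washed three times. Binding is pull-down over input reads-per-million enrichment from pooled replicates of the proteinase K-released, PCR-barcoded, Illumina-sequenced DNA.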
row,Sequence,binding signal
1,GATGATTGTTCTCCCAGCTGATGAATTGTACATATCGAGTAAACAAATTTTCCTAATCTTTCTGTTCAAGCGCCATCTAC,1.6 RPM ratio (pull-down/input)
2,GATGATTGTTCTCCCAGCTGATGAATTTTAGGTCTCGAGTAAACAAATTTTCCTAATCTTTCTGTTCAAGCGCCATCTAC,0.798 RPM ratio (pull-down/input)
3,GATGATTGTTCTCCCAGCTGATGAATTTCCTCGATCGAGTAAACAAATTTTCCTAATCTTTCTGTTCAAGCGCCATCTAC,0.856 RPM ratio (pull-down/input)
4,GATGATTGTTCTCCCAGCTGATGAATTATCGCTGTCGAGTAAACAAATTTTCCTAATCTTTCTGTTCAAGCGCCATCTAC,1.05 RPM ratio (pull-down/input)
5,GATGATTGTTCTCCCAGCTGATGAATTCTGTCCCTCGAGTAAACAAATTTTCCTAATCTTTCTGTTCAAGCGCCATCTAC,0.907 RPM ratio (pull-down/input)
6,GATGATTGTTCTCCCAGCTGATGAATTCTCCTCGTCGAGTAAACAAATTTTCCTAATCTTTCTGTTCAAGCGCCATCTAC,0.8 RPM ratio (pull-down/input)
7,GATGATTGTTCTCCCAGCTGATGAATTGTTGTTATCGAGTAAACAAATTTTCCTAATCTTTCTGTTCAAGCGCCATCTAC,2.91 RPM ratio (pull-down/input)
8,GATGATTGTTCTCCCAGCTGATGAATTACGCTATTCGAGTAAACAAATTTTCCTAATCTTTCTGTTCAAGCGCCATCTAC,1.05 RPM ratio (pull-down/input)
9,GATGATTGTTCTCCCAGCTGATGAATTCGTATAGTCGAGTAAACAAATTTTCCTAATCTTTCTGTTCAAGCGCCATCTAC,0.905 RPM ratio (pull-down/input)
10,GATGATTGTTCTCCCAGCTGATGAATTTAGAGCGTCGAGTAAACAAATTTTCCTAATCTTTCTGTTCAAGCGCCATCTAC,0.997 RPM ratio (pull-down/input)
11,GATGATTGTTCTCCCAGCTGATGAATTGTAGTTGTCGAGTAAACAAATTTTCCTAATCTTTCTGTTCAAGCGCCATCTAC,1.69 RPM ratio (pull-down/input)
12,GATGATTGTTCTCCCAGCTGATGAATTAGAGGGCTCGAGTAAACAAATTTTCCTAATCTTTCTGTTCAAGCGCCATCTAC,0.8 RPM ratio (pull-down/input)
13,GATGATTGTTCTCCCAGCTGATGAATTACGCTACTCGAGTAAACAAATTTTCCTAATCTTTCTGTTCAAGCGCCATCTAC,1.05 RPM ratio (pull-down/input)
14,GATGATTGTTCTCCCAGCTGATGAATTCATCGAGTCGAGTAAACAAATTTTCCTAATCTTTCTGTTCAAGCGCCATCTAC,0.817 RPM ratio (pull-down/input)
15,GATGATTGTTCTCCCAGCTGATGAATTGGGACAATCGAGTAAACAAATTTTCCTAATCTTTCTGTTCAAGCGCCATCTAC,1.26 RPM ratio (pull-down/input)
16,GATGATTGTTCTCCCAGCTGATGAATTCATCAGCTCGAGTAAACAAATTTTCCTAATCTTTCTGTTCAAGCGCCATCTAC,0.818 RPM ratio (pull-down/input)
17,GATGATTGTTCTCCCAGCTGATGAATTGCACCCATCGAGTAAACAAATTTTCCTAATCTTTCTGTTCAAGCGCCATCTAC,1.18 RPM ratio (pull-down/input)
18,GATGATTGTTCTCCCAGCTGATGAATTTCCAGCGTCGAGTAAACAAATTTTCCTAATCTTTCTGTTCAAGCGCCATCTAC,0.868 RPM ratio (pull-down/input)
19,GATGATTGTTCTCCCAGCTGATGAATTAGGTAGATCGAGTAAACAAATTTTCCTAATCTTTCTGTTCAAGCGCCATCTAC,0.974 RPM ratio (pull-down/input)
20,GATGATTGTTCTCCCAGCTGATGAATTTTTGTATTCGAGTAAACAAATTTTCCTAATCTTTCTGTTCAAGCGCCATCTAC,1.8 RPM ratio (pull-down/input)
21,GATGATTGTTCTCCCAGCTGATGAATTCCGCACTTCGAGTAAACAAATTTTCCTAATCTTTCTGTTCAAGCGCCATCTAC,0.843 RPM ratio (pull-down/input)

row,Sequence,binding signal
1,GATGATTGTTCTCCCAGCTGATGAATTAGTGTACTCGAGTAAACAAATTTTCCTAATCTTTCTGTTCAAGCGCCATCTAC,1.18 RPM ratio (pull-down/input)
2,GATGATTGTTCTCCCAGCTGATGAATTAACTTCCTCGAGTAAACAAATTTTCCTAATCTTTCTGTTCAAGCGCCATCTAC,0.903 RPM ratio (pull-down/input)
3,GATGATTGTTCTCCCAGCTGATGAATTTCGCTTATCGAGTAAACAAATTTTCCTAATCTTTCTGTTCAAGCGCCATCTAC,0.997 RPM ratio (pull-down/input)
4,GATGATTGTTCTCCCAGCTGATGAATTCCGTCTGTCGAGTAAACAAATTTTCCTAATCTTTCTGTTCAAGCGCCATCTAC,0.835 RPM ratio (pull-down/input)
5,GATGATTGTTCTCCCAGCTGATGAATTTCAGTATTCGAGTAAACAAATTTTCCTAATCTTTCTGTTCAAGCGCCATCTAC,0.936 RPM ratio (pull-down/input)
6,GATGATTGTTCTCCCAGCTGATGAATTAGATTACTCGAGTAAACAAATTTTCCTAATCTTTCTGTTCAAGCGCCATCTAC,1.04 RPM ratio (pull-down/input)
7,GATGATTGTTCTCCCAGCTGATGAATTCTCACGATCGAGTAAACAAATTTTCCTAATCTTTCTGTTCAAGCGCCATCTAC,0.795 RPM ratio (pull-down/input)
8,GATGATTGTTCTCCCAGCTGATGAATTGATTATATCGAGTAAACAAATTTTCCTAATCTTTCTGTTCAAGCGCCATCTAC,1.26 RPM ratio (pull-down/input)
9,GATGATTGTTCTCCCAGCTGATGAATTTATCAACTCGAGTAAACAAATTTTCCTAATCTTTCTGTTCAAGCGCCATCTAC,1.26 RPM ratio (pull-down/input)
10,GATGATTGTTCTCCCAGCTGATGAATTATCGTAATCGAGTAAACAAATTTTCCTAATCTTTCTGTTCAAGCGCCATCTAC,1.54 RPM ratio (pull-down/input)
11,GATGATTGTTCTCCCAGCTGATGAATTCGGTCCATCGAGTAAACAAATTTTCCTAATCTTTCTGTTCAAGCGCCATCTAC,0.857 RPM ratio (pull-down/input)
12,GATGATTGTTCTCCCAGCTGATGAATTCTGATTTTCGAGTAAACAAATTTTCCTAATCTTTCTGTTCAAGCGCCATCTAC,1.03 RPM ratio (pull-down/input)
13,GATGATTGTTCTCCCAGCTGATGAATTTTGTGCATCGAGTAAACAAATTTTCCTAATCTTTCTGTTCAAGCGCCATCTAC,1.35 RPM ratio (pull-down/input)
14,GATGATTGTTCTCCCAGCTGATGAATTTTCAGTATCGAGTAAACAAATTTTCCTAATCTTTCTGTTCAAGCGCCATCTAC,1.02 RPM ratio (pull-down/input)
15,GATGATTGTTCTCCCAGCTGATGAATTGCAGATGTCGAGTAAACAAATTTTCCTAATCTTTCTGTTCAAGCGCCATCTAC,1.27 RPM ratio (pull-down/input)
16,GATGATTGTTCTCCCAGCTGATGAATTCACTATTTCGAGTAAACAAATTTTCCTAATCTTTCTGTTCAAGCGCCATCTAC,1.04 RPM ratio (pull-down/input)
17,GATGATTGTTCTCCCAGCTGATGAATTCAAGGAATCGAGTAAACAAATTTTCCTAATCTTTCTGTTCAAGCGCCATCTAC,0.926 RPM ratio (pull-down/input)
18,GATGATTGTTCTCCCAGCTGATGAATTCACGAAATCGAGTAAACAAATTTTCCTAATCTTTCTGTTCAAGCGCCATCTAC,1.03 RPM ratio (pull-down/input)
19,GATGATTGTTCTCCCAGCTGATGAATTGAATTCTTCGAGTAAACAAATTTTCCTAATCTTTCTGTTCAAGCGCCATCTAC,0.839 RPM ratio (pull-down/input)
20,GATGATTGTTCTCCCAGCTGATGAATTTCCTTAATCGAGTAAACAAATTTTCCTAATCTTTCTGTTCAAGCGCCATCTAC,0.949 RPM ratio (pull-down/input)
21,GATGATTGTTCTCCCAGCTGATGAATTAATGTTTTCGAGTAAACAAATTTTCCTAATCTTTCTGTTCAAGCGCCATCTAC,2.45 RPM ratio (pull-down/input)

row,Sequence,binding signal
1,GATGATTGTTCTCCCAGCTGATGAATTTAATGGCTCGAGTAAACAAATTTTCCTAATCTTTCTGTTCAAGCGCCATCTAC,0.867 RPM ratio (pull-down/input)
2,GATGATTGTTCTCCCAGCTGATGAATTAAAGTAGTCGAGTAAACAAATTTTCCTAATCTTTCTGTTCAAGCGCCATCTAC,0.886 RPM ratio (pull-down/input)
3,GATGATTGTTCTCCCAGCTGATGAATTGGTTTGTTCGAGTAAACAAATTTTCCTAATCTTTCTGTTCAAGCGCCATCTAC,1.13 RPM ratio (pull-down/input)
4,GATGATTGTTCTCCCAGCTGATGAATTCTAGAATTCGAGTAAACAAATTTTCCTAATCTTTCTGTTCAAGCGCCATCTAC,0.916 RPM ratio (pull-down/input)
5,GATGATTGTTCTCCCAGCTGATGAATTCCGGTAATCGAGTAAACAAATTTTCCTAATCTTTCTGTTCAAGCGCCATCTAC,1.11 RPM ratio (pull-down/input)
6,GATGATTGTTCTCCCAGCTGATGAATTTGCCTACTCGAGTAAACAAATTTTCCTAATCTTTCTGTTCAAGCGCCATCTAC,0.998 RPM ratio (pull-down/input)
7,GATGATTGTTCTCCCAGCTGATGAATTGTCAAATTCGAGTAAACAAATTTTCCTAATCTTTCTGTTCAAGCGCCATCTAC,1.09 RPM ratio (pull-down/input)
8,GATGATTGTTCTCCCAGCTGATGAATTTCCTATCTCGAGTAAACAAATTTTCCTAATCTTTCTGTTCAAGCGCCATCTAC,0.822 RPM ratio (pull-down/input)
9,GATGATTGTTCTCCCAGCTGATGAATTCCCGACCTCGAGTAAACAAATTTTCCTAATCTTTCTGTTCAAGCGCCATCTAC,0.731 RPM ratio (pull-down/input)
10,GATGATTGTTCTCCCAGCTGATGAATTTGACAACTCGAGTAAACAAATTTTCCTAATCTTTCTGTTCAAGCGCCATCTAC,0.984 RPM ratio (pull-down/input)
11,GATGATTGTTCTCCCAGCTGATGAATTCAAACTATCGAGTAAACAAATTTTCCTAATCTTTCTGTTCAAGCGCCATCTAC,1.03 RPM ratio (pull-down/input)
12,GATGATTGTTCTCCCAGCTGATGAATTTTTACATTCGAGTAAACAAATTTTCCTAATCTTTCTGTTCAAGCGCCATCTAC,0.983 RPM ratio (pull-down/input)
13,GATGATTGTTCTCCCAGCTGATGAATTGTGGTAGTCGAGTAAACAAATTTTCCTAATCTTTCTGTTCAAGCGCCATCTAC,1.03 RPM ratio (pull-down/input)
14,GATGATTGTTCTCCCAGCTGATGAATTTTGTTATTCGAGTAAACAAATTTTCCTAATCTTTCTGTTCAAGCGCCATCTAC,2.37 RPM ratio (pull-down/input)
15,GATGATTGTTCTCCCAGCTGATGAATTGGTTCAATCGAGTAAACAAATTTTCCTAATCTTTCTGTTCAAGCGCCATCTAC,1.04 RPM ratio (pull-down/input)
16,GATGATTGTTCTCCCAGCTGATGAATTAGGACAGTCGAGTAAACAAATTTTCCTAATCTTTCTGTTCAAGCGCCATCTAC,0.965 RPM ratio (pull-down/input)
17,GATGATTGTTCTCCCAGCTGATGAATTTGGAAACTCGAGTAAACAAATTTTCCTAATCTTTCTGTTCAAGCGCCATCTAC,0.898 RPM ratio (pull-down/input)
18,GATGATTGTTCTCCCAGCTGATGAATTTCCCGTCTCGAGTAAACAAATTTTCCTAATCTTTCTGTTCAAGCGCCATCTAC,0.813 RPM ratio (pull-down/input)
19,GATGATTGTTCTCCCAGCTGATGAATTATGTTGATCGAGTAAACAAATTTTCCTAATCTTTCTGTTCAAGCGCCATCTAC,2.81 RPM ratio (pull-down/input)
20,GATGATTGTTCTCCCAGCTGATGAATTCCAGCGATCGAGTAAACAAATTTTCCTAATCTTTCTGTTCAAGCGCCATCTAC,0.786 RPM ratio (pull-down/input)
21,GATGATTGTTCTCCCAGCTGATGAATTGACCCCCTCGAGTAAACAAATTTTCCTAATCTTTCTGTTCAAGCGCCATCTAC,0.848 RPM ratio (pull-down/input)
